# Variants at the floor of the assay are shown more often than the library holds them.
# B1: TPR 5TU (parent)
# chain: GGAUCUUCUCGAUCUAACAAAAAAGACAAAUCUGCCACAAAGCUUGAGAGCAUCUUCGGAUGCAGAGGCGGCAGCCUUCGGUGGCGCGAUAGCGCCAACGUUCUCAACUAUGACACGCAAAACGCGUGCUCCGUUGAAUGGAGUUUAUCAUG
# Variants of: B1
# Experiment: polymerase ribozyme fitness, log enrichment relative to wild type (log ratio); higher = more active; in vitro selection for triplet polymerase activity
# Summary of the method: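 PCR was used to build mutant libraries for each subunit of a heterodimeric triplet polymerase ribozyme, which were then transcribed. A single in vitro selection round, in triplicate, used a frozen incubation at −7 °C and recovered extended constructs by gel excision, streptavidin beads and RT-PCR. Fitness is the logarithm of genotype enrichment relative to wild-type enrichment, averaged over replicates with inverse-variance weights. The logarithm is base 2, and after Illumina sequencing only genotypes with ≥10 input reads and ≥1 read per output were kept.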
row,Variant,polymerase ribozyme fitness (log ratio)
1,A16C G65C U130A G140U,≤ -4.2
2,A16U G92C G100A,≤ -4.2
3,A16G A19U C93A,-3.75
4,A16G A30U C35U U45G G92A C108U C125U,≤ -4.2
5,A16G A40C C57A U77C G92U,≤ -4.2
6,A17C A52C U61A G81A U90G C118G,≤ -4.2
7,A16U A24U A37C U44C G50A A64C G71A U77A G83A A89C G126A,≤ -4.2
8,A16C U33A C54A C85A A91G C125G G133U,≤ -4.2
9,A16C A28G C38U A47C U53G C79U C114G U135G G136U,≤ -4.2
10,A16C A41C G58A U61G A73C G94C A121G,≤ -4.2
11,A16G C43U C51U G80C G117A A142C,≤ -4.2
12,A16U A22U C38U C85U,-2.73
13,A16G G34C C35A C54A C93A,≤ -4.2
14,A16U A23U C51U G86A C125U G126C,≤ -4.2
15,A16C C57U G59A A66C U78A G92A C99U G128C,≤ -4.2
16,A16C G46A G65C A66C C85U U104A C108A C125G,≤ -4.2
17,A17C A24U C27U G88U A89G A106U A115U C118A,≤ -4.2
18,A16C C27A C87U,≤ -4.2
19,A16U C75G C87A A98U G124A,≤ -4.2
20,A16C A39G G74U C85U C114A A138C U139A G141A,≤ -4.2
21,A16G A22U A91U C93U U102G G128U,≤ -4.2

row,Variant,polymerase ribozyme fitness (log ratio)
1,A16U G59C A150U,-0.494
2,A16G G83C A110U U135A G141U,≤ -4.2
3,A16U G25U C35A A41C U53A C76U C79G A89U C93U U139G,≤ -4.2
4,A16U G50A C114A U127A,≤ -4.2
5,A17C A23G A26U C36A G62U G65U C69A G84A U145G,≤ -4.2
6,A17C C18U C35G U45A C57A C96A C99U C114U G133U,≤ -4.2
7,A16G A52G C57U A73C C85U C96G,≤ -4.2
8,A16C A52G G83A C85U A119C U134G U135C U139A U146C,≤ -4.2
9,A16U A20G C87A C93A G112U,≤ -4.2
10,A16C A22G C32A A37G G50U G74U,≤ -4.2
11,A16U C35G A60G G68C G92C C95U C114A A121G,≤ -4.2
12,A16C A24C A26G U56A A73U C87G U130G U148G,≤ -4.2
13,A16U C32G G34A C85G U90G A97G U134G G141C,≤ -4.2
14,A16G A30U C87A C103A U148C,≤ -4.2
15,A16U C27G U45G G48A C54A U78C G83U A97G G140A,≤ -4.2
16,A16C C43A G48A U56G G84U G143A,≤ -4.2
17,A17C A28C A29U G133U,≤ -4.2
18,A16G A40G G86C,≤ -4.2
19,A16G G25U U78G G94C C96A C116G U146G,≤ -4.2
20,A17C A26U C75A G84A G141U,≤ -4.2
21,A16U A28U A49U G59A G80A A107U,≤ -4.2

row,Variant,polymerase ribozyme fitness (log ratio)
1,A16U G71U U102G,≤ -4.2
2,A16U A30U U55A C69A C79U C108G,≤ -4.2
3,A17C A21G A24C C36G G80C,≤ -4.2
4,A16C G50U G74C C95U C108U,≤ -4.2
5,A16U A49C G68A C93U,≤ -4.2
6,A16C C35U G80A G94A C118U,-3.33
7,A16U C38U C54U U56A G81U C87U C116G G133C,≤ -4.2
8,A16U A52G G80A G81C A121U U127A,≤ -4.2
9,A16U G68A C75A C76U G88U A97G A107U A121G,≤ -4.2
10,A16U G50C C51G U55G C57U C79G G94U A110G A115G U139A,≤ -4.2
11,A16G A30U G83U U127G,≤ -4.2
12,A16U C54A C85A,≤ -4.2
13,A17C A60U G81U G83U G86U C93A,-0.433
14,A16U A19U C93G,≤ -4.2
15,A16U G68A C75A C76U G88U A107U A121G,≤ -4.2
16,A16U A17U G62A G68U C85G G143C,≤ -4.2
17,A16C G67U U109A,≤ -4.2
18,A16G A22G U78C G83C C85A C105A G126A C132A,≤ -4.2
19,A16G A20G A28U G58C G94U G136U,≤ -4.2
20,A16C A52G A137U,≤ -4.2
21,A16U U31A C57A G65A C72A C85G,≤ -4.2

row,Variant,polymerase ribozyme fitness (log ratio)
1,A16U U31G A37G G83A C96A A106C,≤ -4.2
2,A16C C27U A40U U55G C85U A107U A115G,≤ -4.2
3,A16C A52C U56A A89U G94A C105U,≤ -4.2
4,A16U C38G C54U A142C U146G A150G,≤ -4.2
5,A16U C32A A39C G81C A107G A120C,≤ -4.2
6,A16U U56A C76G U77G C118U,≤ -4.2
7,A16U G83A A142G U148A,≤ -4.2
8,A16U A20C G46A G58U G70A G100A,≤ -4.2
9,A16U A24C A49G C51U U77A C79U C87A C125G,≤ -4.2
10,A16U C96U C99A G133C G141A,≤ -4.2
11,A16G C35U C57A G68U G84C C85G U127C,≤ -4.2
12,A17C A66G G141C G152U,≤ -4.2
13,A17C A29G A89G G92A G152U,≤ -4.2
14,A16U C87A,≤ -4.2
15,A16G A28C U53A C85U A89U A110G,≤ -4.2
16,A16G G86U A115U U151C,≤ -4.2
17,A16U C38U C51U A73G G92U G94A A98C U151A,-3.96
18,A16U A37U C79A C99U U139A A142U,≤ -4.2
19,A16U U45C C123A,-2.97
20,A16G G83A,-0.814
21,A16C C27A A30U C38G G48U G86U A110U C116G G141A,-4.02

# Reference: the RNAGym collection of RNA variant scans (doi:10.1073/pnas.2313332121)
